# From PubChem BioAssay AID504832 (National Center for Advancing Translational Sciences (NCATS), 2011)
# Among all 310,000 compounds or so, about 18,000 (5.8%) were called active. This list was built around the results that the source calls inconclusive (neither active nor inactive); the mix of calls is not that of the screen. The call rests on the fitted dose curve; in most records, active means well fitted inhibition curve with a large enough effect; inconclusive means small, poorly fitted or top-dose-only effect, or another doubt; inactive means no such curve, though single readings can be large or run the other way. No potency is given beside an inconclusive call; the fits are too rough.
# Experiment: Primary qHTS for delayed death inhibitors of the malarial parasite plastid, 48 hour incubation
# Details: P. falciparum luciferase growth in erythrocytes; series mostly up to 28.7 µM; activity change, negative = inhibition: at the top concentration
# Method in brief: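 First compound was added to culture medium, then infected red cells at 0.1% parasitemia and 2% hematocrit (final). After incubation at 37 C under 5% CO2, luciferase detection reagent was dispensed and light output recorded.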
# On the % scale 0 is the no-effect control and ±100 the full control effect; potency means the concentration at half of the fitted maximal effect; tags describe the fitted curve by direction and shape.
SMILES,Potency,"activity change, negative = inhibition"
COc1ccc(C2c3c(ccc4ccccc34)Oc3ncn4nc(Cc5ccccc5)nc4c32)cc1OC (centres undefined),active: 1.65 µM,
O=C(/C=C/c1ccc2c(c1)OCO2)NCCS(=O)(=O)N1CCN(c2ccc(F)cc2)CC1,"inconclusive [inhibitor, single point]",
CCc1ccccc1NC(=O)CSc1ccsc1[N+](=O)[O-],,inactive: -9.98%
CC(C)c1ccc(CNCc2ccccc2)cc1,,inactive: 19.7%
O=C(c1ccccc1)c1ccccc1N1C(=O)C=CC1=O,"inconclusive [inhibitor, partial curve, poor fit]",
O=C(c1ccc(Br)cc1)N(c1ccccn1)C1CCCCC1,,inactive: -6.23%
CCc1ccc(N2CC(C(=O)OCC(=O)Nc3ccc([N+](=O)[O-])cc3)CC2=O)cc1 (centres undefined),"inconclusive [inhibitor, partial curve, poor fit]",
CCCCCNCc1cccn1C,,inactive: -0.844%
Cc1ccc(-c2nn(-c3cc(Cl)ccc3[N+](=O)[O-])c(=O)c3ccccc23)cc1C,active: 5.22 µM,
Cc1nn(-c2ccccc2)nc1CNS(C)(=O)=O,,inactive: 58.8%
COc1cccc(NC(=O)CN(C)C(=O)c2ccc(-c3cccc(C(F)(F)F)c3)o2)c1,active: 0.329 µM,
C/C(=N\Nc1nc2c(s1)CCCC2)c1ccc(Cl)cc1,"inconclusive [inhibitor, single point]",
O=C(/C=C/c1ccccc1)Oc1cccc(C(=S)N2CCOCC2)c1,"inconclusive [inhibitor, full curve, poor fit]",
Cc1ccccc1Nc1c(-c2ccccn2)nc2ccccn12,active: 2.62 µM,
Cc1cc(/C=N/NC(=O)CC2(C)OCCO2)c(C)n1-c1cc(Cl)cc(Cl)c1,"inconclusive [inhibitor, single point]",
COc1ccc(N=C2S/C(=C\c3ccc(C)s3)C(=O)N2CC(C)C)cc1,"inconclusive [inhibitor, full curve, poor fit]",
CCC(C)NC(=O)c1c(N)n(CC2CCCO2)c2nc3ccccc3nc12 (centres undefined),active: 11.7 µM,
O=C(c1ccccc1)c1ccc(N=Nc2c(O)[nH]c(=O)[nH]c2=O)cc1,,inactive: 68.9%
O=C(Nc1ccc2[nH]ccc2c1)c1ccc(F)cc1,,inactive: 165%
CCCCn1c(N)c(N(CC(C)C)C(=O)CSc2ccc3c(c2)OCCO3)c(=O)[nH]c1=O,,inactive: -28.7%
CCOC(=O)c1c(NC2=NS(=O)(=O)c3ccccc32)sc2c1CCC(C)C2 (centres undefined),,inactive: 12.1%
COc1ccc(-n2nc(C(=O)NCC(=O)N3CCC4(CC3)OCCO4)c3ccccc3c2=O)c(OC)c1,"inconclusive [inhibitor, partial curve]",
CCN1CCN(c2ccc(S(=O)(=O)N3CCCCC3)cc2NC(=O)Cc2ccc(OC)cc2)CC1,active: 9.28 µM,
COc1ccc(/C=C2/C(=O)N(Cc3ccccc3)N=C2C)cc1,,inactive: -3.71%
COc1ccc(Cl)cc1-n1c(=S)sc2c(=O)[nH]c(SCC(=O)C(C)(C)C)nc21,,inactive: -22.6%

SMILES,Potency,"activity change, negative = inhibition"
Cc1cc(C)cc(OCC(=O)OCC(=O)NC2CCCCCC2)c1,,inactive: 20.8%
O=C1CC(N(CCc2ccccc2)C(=S)Nc2ccccc2)C(=O)N1c1ccc(F)cc1 (centres undefined),"inconclusive [inhibitor, partial curve]",
CCOC(=O)c1c(C)sc2c1N(C(=O)CN(CC)CC)c1ccccc1S2,"inconclusive [inhibitor, single point]",
CC1=C(C(=O)OCCOC(C)C)C(c2cc3c(cc2Br)OCO3)C2=C(CCCC2=O)N1 (centres undefined),"inconclusive [inhibitor, partial curve]",
Oc1ccc(Cl)cc1N=Cc1sc2ccccc2c1Cl,"inconclusive [inhibitor, full curve]",
c1ccc2oc(-c3[nH]ncc3CN3CCC(N4CCSCC4)CC3)cc2c1,,inactive: 6.13%
O=C(COC(=O)c1ccc(Cl)c(S(=O)(=O)N2CCCCC2)c1)NCCc1ccccc1,"inconclusive [inhibitor, single point]",
Cc1ccc(NC(=O)CN(C)C(=O)Cc2c(Cl)cccc2Cl)cc1,"inconclusive [inhibitor, single point]",
Cc1cc(C)cc(NC(=O)CCN2CCOCC2)c1,,inactive: 16.5%
COc1ccc(Cn2nnc3c(=O)[nH]c(C4CCN(C(=O)c5ccccc5Cl)CC4)nc32)cc1,"inconclusive [inhibitor, partial curve]",
C[C@@H](NC(=O)c1ncn(C)c1C(=O)N[C@H](C)c1ccccc1)c1ccccc1,"inconclusive [inhibitor, single point]",
C/C(=N\NC(N)=S)C1C2C3CC4C5CC(C42)C1C53 (centres undefined),"inconclusive [inhibitor, partial curve, poor fit]",
CC12CN3CCN(CC(C3)/C1=N\NC(=O)Nc1cccc(Cl)c1)C2,,inactive: 26.9%
COc1ccc(-c2[nH]c(-c3ccc4c(c3)OCO4)nc2-c2ccccc2)cc1,"inconclusive [inhibitor, single point]",
C=CCNC(=O)C(=O)N/N=C/c1cccc(Br)c1,,inactive: 6.41%
COc1cccc(-n2c(CN3CCOCC3)nc3ccc([N+](=O)[O-])cc3c2=O)c1,"inconclusive [inhibitor, single point]",
Cc1ccc(C)c(CN2CCN(c3ncccn3)CC2)c1,,inactive: 5.58%
Oc1ccc(N=Nc2ccc3c(c2)OCCO3)c2ncccc12,"inconclusive [inhibitor, full curve]",
FC(F)(F)c1nnc2c(Sc3ccccc3)nc3ccc(Cl)cc3n12,"inconclusive [inhibitor, partial curve, poor fit]",
COc1ccc(OC)c(N2C(=O)NC(=O)C(CCc3ccncc3)(CCc3ccncc3)C2=O)c1,"inconclusive [inhibitor, single point]",
COc1ccc(CN2CCN(C(=O)c3ccc(S(=O)(=O)NCc4ccco4)cc3)CC2)cc1F,"inconclusive [inhibitor, single point]",
COc1ccc(N(CC(=O)NC2CCCC2)C(=O)Cn2nnc(-c3ccc(C)cc3)n2)cc1OC,"inconclusive [inhibitor, partial curve, poor fit]",
O=[N+]([O-])c1cc([N+](=O)[O-])c(N2CCOCC2)cc1NCc1ccccc1,"inconclusive [inhibitor, single point]",
CN(C)C(=O)c1cccn1-c1ncc(C(F)(F)F)cc1Cl,,inactive: 207%
C=CCCCCCCCC(=O)OC,"inconclusive [inhibitor, full curve, poor fit]",

SMILES,Potency,"activity change, negative = inhibition"
O=C(NNS(=O)(=O)c1ccccc1)Nc1ccc(F)cc1,,inactive: 21.1%
COc1ccc(OC)c(Nc2c3c(nc4ccccc24)CCC3)c1,"inconclusive [inhibitor, single point]",
O=C(c1ccc2c(c1)N(Cc1ccccc1)CCS2)N1CCCCC1,"inconclusive [inhibitor, single point]",
Cc1nc(SCC(=O)N2CCCCCC2)[nH]c(=O)c1C,,inactive: 10.6%
COc1ccc(CCN2C(=O)C3C(C2=O)C2C=CC3C23CC3)cc1OC (centres undefined),,inactive: 33.5%
CCCCc1ccc(NC(=O)Nc2cnccn2)cc1,"inconclusive [inhibitor, single point]",
Cc1cc(C)c2nc(SCC(=O)N(C)C3CCS(=O)(=O)C3)cc(C)c2c1 (centres undefined),"inconclusive [inhibitor, single point]",
O=C1c2ccc([N+](=O)[O-])cc2C(=O)N1Cc1cccnc1,,inactive: 5.7%
CC(/C=C/c1ccccc1)=N\NC(=O)CCc1ccccc1,"inconclusive [inhibitor, partial curve, poor fit]",
CCCn1c(NC(=O)C23CC4CC(CC(O)(C4)C2)C3)nc2ccccc21,"inconclusive [inhibitor, single point]",
O=C(COC(=O)C1CCN(/C=C/C(=O)C(F)(F)F)CC1)Nc1cccc(F)c1,,inactive: 9.78%
c1ccc(NC2=NCCN2CC2CCCCCC2)cc1,"inconclusive [inhibitor, single point]",
CCN(CC)CCCNC(=S)N(Cc1cccnc1)Cc1cc2cc(C)cc(C)c2[nH]c1=O,"inconclusive [inhibitor, partial curve, poor fit]",
CC(=O)c1ccc2c(c1)N(CCCN1CCC(CCO)CC1)c1ccccc1S2,active: 8.09 µM,
COc1ccc2c(C)cc(SCC(=O)Nc3cc(C(N)=O)cc(C(N)=O)c3)nc2c1,,inactive: 5.67%
C=CCN1C(=O)/C(=C2/Sc3ccc(OC)cc3N2C)SC1=Nc1ccccc1,,inactive: 18.6%
O=c1[nH]c(/C=C/c2cccc3ccccc23)nc2ccccc12,"inconclusive [inhibitor, single point]",
Cc1ccc(S(=O)(=O)N(Cc2ccccc2)c2ccccc2C(=O)Nc2ccccc2C(=O)NCc2ccco2)cc1,active: 10.4 µM,
O=C1NCCN1Cc1ccccc1,,inactive: 52.7%
CC(C)N(Cc1nc(-c2ccccc2)no1)C(=O)c1ccc2c(c1)OCO2,"inconclusive [inhibitor, single point]",
CCC1CN(C(=O)N2CCC(C(=O)NCc3ccco3)CC2)c2ccccc2O1 (centres undefined),,inactive: -1.83%
Cc1nn(-c2ccccc2)c2c1/C(=N/O)CC(C)(C)C2,"inconclusive [inhibitor, single point]",
CS(=O)(=O)c1cccc(S(=O)(=O)N2CCN(c3ccccn3)CC2)c1,,inactive: -25.3%
COCCNC(=S)N/N=C(\C)c1ccccc1OC,"inconclusive [inhibitor, single point]",
